PubChem BioAssay (NCATS)
Where “and” joins values, the source holds several entries; their conditions need not be identical. Identical values can stand only once. The list shows a part of the results. Shown are side measurements of this screen, not its main read-out; they come without a call. The list favours compounds with an active or inconclusive main result. Words in brackets tell the shape of the fitted curve; partial curves, single points and poor fits give uncertain potencies.

Test: qHTS Assay for Lipid Storage Modulators (AID 1519)
Conditions: Drosophila S3 cells, BODIPY lipid droplet/cell ratio, laser cytometry, cells loaded with oleic acid
In short: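 Cells seeded at 5,000 per well were treated with compounds over a concentration series and loaded with oleic acid (400 uM, as added). Lipid droplet fluorescence (488 nm excitation, 500-530 nm channel) was read by laser-scanning cytometry and normalized to 20 uM Triacsin C.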

[1] = measured here: cell count channel max response
[2] = measured here: cell number channel AC50
[3] = measured here: lipid (BODIPY) channel AC50
[4] = measured here: lipid channel max response
Tags describe the fitted curve by direction and shape.

CC(C)[C@@]1(NC(=O)[C@@H]2C[C@H]3c4cccc5[nH]cc(c45)C[C@@H]3N(C)C2)O[C@@]2(O)[C@H]3CCCN3C(=O)[C@H](Cc3ccccc3)N2C1=O
max response [1]: 52.6% and 39.9%
AC50 [2]: 4.47 µM [rising, full curve, poor fit] and 7.94 µM [rising, partial curve, poor fit]
AC50 [3]: 3.98 µM [rising, full curve, poor fit]
max response [4]: 59.9% and 46.7%

Cn1ccnc1
max response [1]: 59.5%
AC50 [2]: 3.55 µM [falling, full curve, poor fit]
AC50 [3]: 3.55 µM [falling, full curve, poor fit]
max response [4]: 62.4%

CC(C)(O)[C@H]1O[C@@H]2CC[C@]3(C)[C@@]4(C)c5[nH]c6ccccc6c5C[C@@H]4CC[C@]3(O)C2=CC1=O
max response [1]: 67.3%
AC50 [2]: 6.31 µM [rising, partial curve, poor fit]
AC50 [3]: 5.62 µM [rising, partial curve]
max response [4]: 90.4%

Cn1cc(C(=O)C(=O)N[C@H]2CN3CCC2CC3)c2ccccc21
max response [1]: 30.2%
AC50 [2]: 12.6 µM [rising, full curve, poor fit]
AC50 [3]: 14.1 µM [rising, full curve, poor fit]
max response [4]: 36.1%

COc1cc2ccc(=O)oc2c2ccoc12
max response [1]: 39%
AC50 [2]: 0.316 µM [rising, full curve, poor fit]
AC50 [3]: 1 µM [rising, partial curve]
max response [4]: 56.6%

C[C@H](N)Cc1cnc[nH]1
max response [1]: 53.2%
AC50 [2]: 35.5 µM [rising, single point]
AC50 [3]: 35.5 µM [rising, partial curve, poor fit]
max response [4]: 73.2%

CC(C)=CCCC1(C)C=Cc2c(O)c3c(c(CC=C(C)C)c2O1)OC12C(=CC4CC1C(C)(C)OC2(C/C=C(/C)C(=O)O)C4=O)C3=O (centres undefined)
max response [1]: -63%
AC50 [2]: 28.2 µM [falling, partial curve, poor fit]
AC50 [3]: 7.08 µM [falling, partial curve]
max response [4]: -81.9%

CC(=O)NCCc1c[nH]c2ccccc12
max response [1]: 53.3% and -31.7%
AC50 [2]: 22.4 µM [rising, partial curve, poor fit] and 7.08 µM [falling, full curve, poor fit]
AC50 [3]: 17.8 µM [rising, partial curve, poor fit] and 6.31 µM [falling, full curve, poor fit]
max response [4]: 60.9% and -32.2%

COc1ccc(CC2c3cc(OC)c(OC)cc3CCN2C)cc1OC (centres undefined)
max response [1]: 116%
AC50 [2]: 15.8 µM [rising, partial curve, poor fit]
AC50 [3]: 15.8 µM [rising, partial curve]
max response [4]: 149%

c1ccc(CN2CCC3(CCc4ccccc43)CC2)cc1
max response [1]: 56.4%
AC50 [2]: 35.5 µM [rising, partial curve, poor fit]
AC50 [3]: 28.2 µM [rising, partial curve, poor fit]
max response [4]: 70.4%

CCCCCCCCCCCCCC(=O)OC1C(C)[C@@]2(O)C(C=C(CO)C[C@]3(O)C(=O)C(C)=C[C@H]23)[C@@H]2C(C)(C)[C@]12OC(C)=O (some centres undefined)
max response [1]: 25%
AC50 [2]: 3.55 µM [rising, full curve, poor fit]
AC50 [3]: 3.98 µM [rising, full curve]
max response [4]: 50.3%

COc1cc2c(cc1OC)C1C(=O)c3c(cc4c(c3O)C=CC(C)(C)O4)OC1CO2 (centres undefined)
max response [1]: -33.9%
AC50 [2]: 7.94 µM [falling, full curve, poor fit]
AC50 [3]: 7.08 µM [falling, full curve]
max response [4]: -86.8%

Cc1c(C(=O)c2ccc3ccccc3c2)c2cccc3c2n1[C@H](CN1CCOCC1)CO3
max response [1]: 102%
AC50 [2]: 11.2 µM [rising, partial curve]
AC50 [3]: 3.98 µM [rising, full curve]
max response [4]: 102%

Clc1ccc(N2CC3CCC(C2)N3)nn1
max response [1]: 66.8%
AC50 [2]: 39.8 µM [rising, single point]
AC50 [3]: 39.8 µM [rising, single point]
max response [4]: 67.8%

COc1cc2c(cc1OC)-c1c(OC)c(OC)c(C=O)c3c1[C@H](C2)N(C)CC3
max response [1]: 84.9%
AC50 [2]: 2.24 µM [rising, full curve]
AC50 [3]: 1.58 µM [rising, full curve, poor fit]
max response [4]: 43.2%

C=C1CCC(O)C/C1=C\C=C1/CCCC2(C)C1CCC2C(C)CCCC(C)C (centres undefined)
max response [1]: 82.4%
AC50 [2]: 35.5 µM [rising, partial curve, poor fit]
AC50 [3]: 35.5 µM [rising, partial curve]
max response [4]: 90.6%
